From a compilation of properties of binary mixtures (doi:10.1007/s10973-015-4753-3)
Some of these densities may be calculated back from excess volumes.

Assay: xn = mol fraction of the nth substance listed
Conditions: 298.15 K, 100 kPa

CCCC(=O)[O-].CC[NH3+] + O
Conditions | mass density [kg/m3]
x2 = 0 | 962
x2 = 0.289 | 970.6
x2 = 0.395 | 974.8
x2 = 0.503 | 980.1
x2 = 0.599 | 986
x2 = 0.669 | 991.1
x2 = 0.802 | 1003.5

CC[NH3+].O=C[O-] + O
Conditions | mass density [kg/m3]
x2 = 0 | 1033.5
x2 = 0.095 | 1035.4
x2 = 0.166 | 1036.9
x2 = 0.282 | 1039.5
x2 = 0.375 | 1041.7
x2 = 0.614 | 1047
x2 = 0.668 | 1047.7
x2 = 0.8 | 1045.5
x2 = 0.91 | 1031.8

CCC(=O)[O-].CC[NH3+] + O
Conditions | mass density [kg/m3]
x2 = 0.105 | 990.1
x2 = 0.179 | 992.5
x2 = 0.284 | 996
x2 = 0.376 | 1000
x2 = 0.5 | 1005.9
x2 = 0.602 | 1012
x2 = 0.675 | 1017
